Measurements as given in PubChem BioAssay AID652104 (National Center for Advancing Translational Sciences (NCATS), 2013).
Hit rate of the full screen: of about 410,000 compounds, about 7,200 (1.8%) were called active. This list was built around the results that the source calls inconclusive (neither active nor inactive); the mix of calls is not that of the screen. Calls follow the shape of the dose curve; as a rule, active = well fitted activation curve with a large enough effect; inconclusive = small, poorly fitted or top-dose-only effect, or another doubt; inactive = no such curve, though single readings can be large or run the other way. Potencies beside an inconclusive call are fits to weak or partial responses and may not hold up.

test: qHTS of TDP-43 Inhibitors; conditions: TDP-43 expressing yeast growth rescue, BacTiter-Glo, 24 h; growth rescue (activation): at 46.1 µM (top of the series) unless noted; also: nearly all actives have a fitted effect of over 50% in size; as to growth rescue (activation): % of control where 0% means no effect
Procedure, shortened: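 Yeast expressing TDP-43 (pregrown in raffinose, seeded at OD600=0.02 in galactose medium) exposed to compounds 24 hr at 30 deg C. Growth read by BacTiter-Glo luminescence; rescue of toxicity appears as increased signal.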
Potency is read from the fitted curve at half-maximal effect; tags tell the direction and shape of the fitted curve.

Potency, active:
CC1(OC(=O)C2CCCC2)C(=O)C=C2C=C(c3ccsc3)N(C3CCCCC3)C=C2C1=O (configuration not stated) 10 µM
O=C(c1cc(COc2ccc(F)cc2Cl)on1)N1CCN(c2cnccn2)CC1 31.6 µM
Cc1cccnc1NC(=O)Nc1cccs1 5.01 µM
Cc1ccc(-c2noc(C3CCCN(C(=O)c4ccccc4Br)C3)n2)cc1 (configuration not stated) 12.6 µM
COc1ccccc1N(O)C1CC(=O)N(c2ccc(Br)cc2)C1=O (configuration not stated) 28.2 µM
CN(Cc1cnc2nc(N)nc(N)c2n1)c1ccc(C(=O)NC(CCC(=O)O)C(=O)O)cc1 (configuration not stated) 15.8 µM
CC(C)(C)C1=NN=C2c3ccccc3C(=O)C21 (configuration not stated) 15.8 µM
COc1ccc(Nc2nc(N)nc(CSC(=S)N3CCN(c4ccccc4)CC3)n2)cc1 17.8 µM
COc1ccc(CNC(=S)N/N=C(/C)c2ccccc2)cc1 17.8 µM

Potency, inconclusive:
Cc1ccc(-c2noc(-c3ccccc3C(=O)NCC3CCCO3)n2)cc1 (configuration not stated) 7.08 µM [activator, full curve, poor fit]
Cc1cc(C)c(C(=O)N2CCCC(C(=O)c3cc(F)ccc3F)C2)o1 (configuration not stated) 14.1 µM [activator, partial curve]
Cc1ccc(O)c(NC(=O)CCS(=O)(=O)c2nc(-c3ccc4c(c3)OCO4)cc(C(F)(F)F)n2)c1 6.31 µM [activator, partial curve]
CC(C)COc1ccc(C(=O)NC(CC(C)C)C(=O)O)cc1 (configuration not stated) 35.5 µM [activator, single point]
CC(=NC1CCCCC1)C1=C(O)c2ccccc2C1=O 14.1 µM [activator, single point]
Cc1ccc(S(=O)(=O)N2CCC(=O)N([C@H](COCc3ccc(Cl)cc3)C(C)C)CC2)cc1 15.8 µM [activator, partial curve]
Cc1ccc(Cl)cc1C1=CC(=O)C[C@H](c2ccc(F)cc2)C1 31.6 µM [activator, single point]
c1coc(-c2cc3nc(NC4CCCCC4)ccn3n2)c1 12.6 µM [activator, partial curve]
CCOc1ccc2nc(SCc3ccc(F)cc3)sc2c1 20 µM [activator, partial curve]
Cc1ccc(Cl)cc1NC(=O)C1CCCN(S(C)(=O)=O)C1 (configuration not stated) 1.41 µM [activator, partial curve]
O=C(Nc1ccccc1)c1ccc(F)cc1F 3.55 µM [activator, partial curve]
CCOC(=O)N1CCN(C(=O)c2ccc(Oc3ccc([N+](=O)[O-])cc3)cc2)CC1 22.4 µM [activator, partial curve]
O=C(CN1CCN(S(=O)(=O)c2ccc(Br)cc2)CC1)N/N=C/c1ccco1 39.8 µM [activator, partial curve, poor fit]
Cc1ccsc1CN(C(=O)c1oc2ccccc2c1C)C1CCS(=O)(=O)C1 (configuration not stated) 17.8 µM [activator, partial curve, poor fit]
Cc1oc(C(=O)O)cc1COc1ccccc1Cl 12.6 µM [activator, partial curve]
CCC1CCCCN1C(=S)NC1CCCCC1 (configuration not stated) 5.62 µM [activator, partial curve]
CC(=O)c1ccc(OC(=O)Cc2cccc3ccccc23)cc1 14.1 µM [activator, partial curve]
CCOc1ccc(C(=O)c2cn(Cc3ccc(F)cc3)c3ccc(F)cc3c2=O)cc1 17.8 µM [activator, partial curve]
COc1cccc(N2CC(C(=O)Oc3ccc4ccccc4c3)CC2=O)c1 (configuration not stated) 10 µM [activator, partial curve]
CCCCN(C)C(=O)c1cc2cc3cc(OC)ccc3nc2o1 7.08 µM [activator, full curve, poor fit]
Cc1csc2ncnc(N3CCN(C(=O)Nc4ccc(OC(F)(F)F)cc4)CC3)c12 15.8 µM [activator, single point]
COc1ccccc1N1CCN(C(=O)COc2cccc(C)c2C)CC1 20 µM [activator, partial curve]
COc1ccc(-c2cc(-c3ccc(OC)cc3)[nH]n2)cc1 25.1 µM [activator, single point]
COc1ccc(Nc2ccc(S(=O)(=O)N3CCCCC3)cc2[N+](=O)[O-])cc1 17.8 µM [activator, single point]
CCOC(=O)/C=C/C(=O)OCC(=O)Nc1ccc(Cl)cc1Cl 22.4 µM [activator, single point]
c1ccc(Nc2nc(N3CCCCC3)nc(N3CCCCC3)n2)cc1 15.8 µM [activator, single point]
O=C(C1=C[C@@H](c2ccccc2)C[C@@H](OCCCCO)O1)N1CCN(Cc2ccc3c(c2)OCO3)CC1 0.0631 µM [activator, full curve, poor fit]
COc1ccc(-c2csc(C(NC(C)=O)c3cccc(F)c3)n2)cc1 (configuration not stated) 5.01 µM [activator, full curve]
CCCCn1nc(NC(=O)c2cccs2)c2cc3cc(OC)ccc3nc21 22.4 µM [activator, single point]
FC(F)Oc1ccc(NC(=S)NCc2ccco2)cc1Cl 31.6 µM [activator, partial curve]
N/C(=N\OC(=O)/C=C/c1ccccc1Cl)c1cccnc1 31.6 µM [activator, single point]
O=S(=O)(c1ccc(OCC2CO2)cc1)c1ccc(OCC2CO2)cc1 (configuration not stated) 11.2 µM [activator, partial curve]
O=C(Nc1ccccc1Cl)c1cc(C2CCCN(C(=O)c3ccccc3)C2)on1 (configuration not stated) 12.6 µM [activator, partial curve, poor fit]
O=c1c2ccccc2nnn1Cc1nnc(-c2ccccc2Br)o1 17.8 µM [activator, single point]
CCc1noc(C)c1C(=O)Nc1nc(-c2ccccc2)c(C(C)=O)s1 22.4 µM [activator, partial curve]
O=C(Nc1nnc(COc2ccc(Cl)cc2)s1)C1CCCO1 (configuration not stated) 35.5 µM [activator, partial curve]
C[C@H](CO)N1C[C@H](C)[C@@H](CN(C)C(=O)Nc2ccc(C(F)(F)F)cc2)Oc2ccc(NC(=O)c3ccncc3)cc2C1=O 6.31 µM [activator, partial curve]
O=S1(=O)c2ccc(Br)cc2N2CCC[C@@H]2CN1C1CC1 35.5 µM [activator, single point]
O=C(NNc1ccc([N+](=O)[O-])cc1)Nc1ccccc1 35.5 µM [activator, single point]
COc1ccc(-c2ccc(=O)n(CC(=O)NCCc3ccccc3)n2)cc1 35.5 µM [activator, partial curve]
O=C(NCc1ccccn1)c1cc(S(=O)(=O)N2CCCCCC2)ccc1Cl 35.5 µM [activator, single point]
O=C1CCn2nc(-c3ccc(Cl)cc3)cc2N1 5.62 µM [activator, single point]
COCCCN=Cc1c(-c2ccccc2)[nH]n(-c2nc3ccccc3s2)c1=O 17.8 µM [activator, single point]
COc1ccc2c(Cl)c(-c3nnc4n3CCCCC4)sc2c1 17.8 µM [activator, single point]
CC1CCCCN1C(=O)COC(=O)c1cc([N+](=O)[O-])ccc1N1CCOCC1 (configuration not stated) 17.8 µM [activator, partial curve]
CCCCOC(=O)Cn1c(-c2ccccc2)nc2ccccc2c1=O 1.12 µM [activator, full curve, poor fit]
CCOC(=O)C1=C(Nc2ccc(OC)cc2)OCC1=O 17.8 µM [activator, partial curve]
Cc1nc2nc[nH]n2c(=O)c1NC(=O)CC12CC3CC(CC(C3)C1)C2 35.5 µM [activator, partial curve]

Growth rescue (activation), inconclusive:
CC(O)(c1cccc(F)c1)c1nc(-c2ccc(Cl)cc2)cs1 (configuration not stated) -92.2% [activator]

Growth rescue (activation), inactive:
Cc1cccc(OCC(=O)N(C)c2c(N)n(Cc3ccccc3)c(=O)[nH]c2=O)c1C -5.67%
COc1cc(OC)cc(C(=O)NCC(=O)OCC(=O)NC2CCCc3ccccc32)c1 (configuration not stated) 18.2%
CC(C)C[C@@H](C)C(=O)N(Cc1ccccc1)c1ccccc1 1.95%
CC(=O)Nc1cccc(NC(=O)CSc2cn(CC(=O)N3CCCCCC3)c3ccccc23)c1 17.2%
CC(C)C[C@@H](COCc1ccc(Cl)cc1)N1CCN(C(=O)c2ccc(C(F)(F)F)cc2)CCC1=O 0%
O=C(NC1CCCC1)c1cccc(Cn2cc([N+](=O)[O-])cn2)c1 -13.5%
Fc1cccc(Cl)c1CSc1nnc2ccccn12 4.45%
O=C(NNc1nc2cc3c(cc2s1)OCO3)c1ccccc1 4.18%
Cc1ccc(C)c(NC(=O)CCCN2C(=O)C(c3ccccc3)Oc3cccnc32)c1 (configuration not stated) 12.9%
